# From the supplement of paper PMC10338343
# ± gives the standard deviation. Only a part is listed here, and it is no random draw.
# Test system: MIWI (PIWIL1) piRISC loaded with L1MC piRNA (30 nt)
# Assay: pre-steady-state target cleavage rate (min^-1); MIWI and MILI are mouse PIWI proteins and EfPiwi is from a freshwater sponge; tags in brackets are library labels; higher = faster piRNA-guided slicing of the target
# Settings: guide: L1MC piRNA 5'p-UAACUAAAUACUAUGCAAGCUGUAGGUCCU; auxiliary factor: none (no GTSF1)
# Procedure, shortened: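 Using HEPES–potassium acetate buffer at 33 °C, 1 nM active affinity-purified piRISC with a single synthetic guide was mixed with 0.1 nM transcribed, DNA-blocked target RNA library for 0–8 or 0–960 min, with or without 500 nM GTSF1 partner protein. Uncleaved targets were sequenced and normalised to depth and to weakly complementary targets, and three trials were pooled with k3 capped at 0.0001 min^-1. A burst-and-steady-state fit gave the pre-steady-state cleavage rate.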
row,Sequence,pre-steady-state target cleavage rate
1,UCCUGGAUGUGCUUGCAUAGUACUUAGUUA,0.0283 ± 0.0074
2,UGGACCUACAGGUUGCAUAGUAUUAAGUUA,0.0148 ± 0.0033
3,UCCUGGAUGAGCUUGCAAAGUAUUUAGAAA,0.00561 ± 0.0024
4,UGGACCUACAGCAUGCAUAGUAUUUAGAAA,0.00651 ± 0.0026
5,UCCUCCUACAGCUUGGUUAGUAUUUAGUUA,0.00939 ± 0.0024
6,UCCUGGAUGUCCUCGCAUAGUAUUUAGUUA,0.0054 ± 0.0019
7,UCGACCAACAGCUUGCAUAGUUUUUAGUUA,0.0425 ± 0.01
8,UCCUCCUACAGCAUGCAUAGUAUUUAGUUA,0.0219 ± 0.0048
9,UCCACCUACAGCUUGCAAUGUAUUUAGUAA,0.00289 ± 0.0021
10,AGGACCUUCAGCUUGCAUAGUAUUAAGUUA,0.0546 ± 0.01
11,UCCUCCUACAGGCUUGCAUAGUAUUUAGUUA,0.0442 ± 0.0069
12,UCCUCCUACAGCUUGGAUAGUUUUUAGUUA,0.0209 ± 0.0042
13,UCCUGGUACAGCUUGCAUAGUAUGUUAGUUA,0.00863 ± 0.0037
14,UCCUGGAUGUGCUUGCAUAGUAAUUUGUUA,0.00536 ± 0.0029
15,AGGACCUACAGCUUGCAUUGUAUUUAGUAA,0.0138 ± 0.0038
16,UGGACCAUGAGCUUGCAUAGUAUUUAGAAA,0.0068 ± 0.0022
17,UCGACCUUCAGGUUGCAUAGUAUUUAGUUA,0.0361 ± 0.0069
18,UGGACCUAGAGGUUGCAUAGUAUUUAGUUA,0.0198 ± 0.003
19,UCCUCCUACAGCUUGCAUAGUAUUUAGGUUA,0.0235 ± 0.0058
20,UCGACCUACAGCCUGCAUAGUAUUUAGUUA,0.0857 ± 0.015

row,Sequence,pre-steady-state target cleavage rate
1,UCCUGGAUGUGCUUGCAUAGUAUUUAGAUUA,0.0149 ± 0.0038
2,UCCUGGAUGAGCUUGCAUAGAAUAUAGUUA,0.00476 ± 0.0035
3,AGGACCUACAGCUUGGAUAGAAUUUAGUUA,0.0178 ± 0.0049
4,UGGACCUACAGCUUGCAUAGUAUAUUGUUA,0.0176 ± 0.0033
5,ACGGACCUACAGCUUGCAUAGUAUUUAGUUA,0.0796 ± 0.016
6,UCCUGCUACUGCUUGGAUAGUAUUUAGUUA,0.0353 ± 0.0055
7,UCCUGGAUCAGCUUGUAUAGUAUUUAGUUA,0.0468 ± 0.012
8,ACGACCUACAGCUUGCAUUGUAUUUAGUUA,0.045 ± 0.0091
9,UCCUGGAACAGCUUCGCAUAGUAUUUAGUUA,0.0143 ± 0.0043
10,UCCUGGAACAGCUUGCAUAGUAUUUAGCUA,0.00561 ± 0.003
11,UCCUGGUACAGCUUGCAUAGUAUUUUGAUA,0.00994 ± 0.0034
12,UCCUGGAUGAGCUUGCAUAGUAUUUAGCUUA,0.0368 ± 0.0079
13,UGGACGUACAGCUAGCAUAGUAUUUAGUUA,0.0457 ± 0.0096
14,AGGACCUACAGCUUGCAUAGAAUUAAGUUA,0.00983 ± 0.004
15,UCCUGGAACAGCUUGCAUAGUAUUUAGGUA,0.0306 ± 0.008
16,UCCUGCUACAGCUAGCUUAGUAUUUAGUUA,0.00673 ± 0.0015
17,UCCUGCUACAGCUUGCAUUGUAUUUAGUAA,0.00925 ± 0.0026
18,UCGACCUAGAGCUUGCAUAGUAUUAAGUUA,0.0195 ± 0.0029
19,UCCUGGAUGUGCUGCAUAGUAUUUAGUUA,0.00446 ± 0.0032
20,UCCUGGAUGUGCUUGCAAAGUAUUUACUUA,0.0142 ± 0.0044
